{
  "source": "paper PMC12136788",
  "binders": {"B1": {"name": "ENSG00000070961:be:win_2251|CDS|ENSG00000070961|bound_else_gene|NA|bound_elsewhere_windowed (ssRNA)", "RNA": "GGGAGUUCUACAGUCCGACGAUCGAGCAAGAGAGGAUAGACAAGAUUUGGCCAAAACUUCGAGUACUUGCAAGAUCAUCUCCUACUGAUAAGCAUACACUGGUUAAAGGUAUAAUUGACAGCACUGUCUCAGACCAACGCCAGCAACAGAGGAUUGAGCAUCA"}, "B2": {"name": "chrX:18604022:18604123:+|CDS|ENSG00000008086|msi1|total|mutant (ssRNA)", "RNA": "GGGAGUUCUACAGUCCGACGAUCGACGAAGGUCUCCCUGCCAAUGAAAGCUUCCUAAAUGGAAACCUUGCUGGAGCCCGUCUCCGUCCACUGCACACCAAAACCUACCAAGCAAGCAGCCAGCCUGGGUCUACCAGCAAAGAUCAACAGAGGAUUGAGCAUCA"}, "B3": {"name": "chr11:69651696:69651723:+|3pUTR|ENSG00000110092|msi1_unk|total|mutant (ssRNA)", "RNA": "GGGAGUUCUACAGUCCGACGAUCGAGGAUCCGGUUCCAUCCUUUACGUGUUUAAAAAAAAGCAUAAAAACAUUUUAAAAACACCGAAAAAUUCAGCAAACCAUUUUUAAAGCCGAAGAGGGUUUCCGGCCGAAAAACAUAUUCCAACAGAGGAUUGAGCAUCA"}, "B4": {"name": "chr20:37241422:37241523:+|3pUTR|ENSG00000118705|msi1_unk|total|mutant (ssRNA)", "RNA": "GGGAGUUCUACAGUCCGACGAUCGUAUGAGAAGAAAAAUGGAAAAAAAAAACUUUAUUUAAAAAAGAAAAAAGUCCAGAUUGCCGUUAUACUUUUGCUUGUUUUUCAGUUUCCCCAACACACAGCAGAUACCUGGUGAGCUCACAACAGAGGAUUGAGCAUCA"}, "B5": {"name": "chr10:104140841:104141001:-|CDS|ENSG00000197748|control|control|control (ssRNA)", "RNA": "GGGAGUUCUACAGUCCGACGAUCGAAUUUGACAAUCCAAAUUCUUCUUAAACAAGGACAAGUAGAACUGGAAAAUUUCCAGCUAGUACUGGAGUAUUCUGAUGCAAUUCUCAUCAACAAGAACAUAAUUGAAGACUUGAAUUCCAACAGAGGAUUGAGCAUCA"}, "B6": {"name": "chr4:168926953:168927063:+|3pUTR|ENSG00000129116|msi1_unk|total|mutant (ssRNA)", "RNA": "GGGAGUUCUACAGUCCGACGAUCCAAAAGAGUUUUCUAACAAGGUUAAUACCUCCGUUCUUAACAUUUUUUUUCUUUAUGUGCCGUGUUUUCAUGCUACCUUGGCCGGAAACUUAUUUACAAACCAUAUUAAAAGGCUAAUUUCAACAGAGGAUUGAGCAUCA"}, "B7": {"name": "chr11:14877439:14878297:-|three_prime_utr|ENSG00000186104|control|control|control (ssRNA)", "RNA": "GGGAGUUCUACAGUCCGACGAUCAAUGUUCUUGUUUUUUACAGCAUUGCUUCAGAGGUUUCAUUUGCAUUUUCCACAUGAACUAGUUCCAGAUCUGAAGCCCAGGUUAGGCAUGACAUUGCAGCCCCAACCCUACCUCAUCUGCAACAGAGGAUUGAGCAUCA"}, "B8": {"name": "chr3:129431351:129431457:-|3pUTR|ENSG00000129071|unk|total|mutant (ssRNA)", "RNA": "GGGAGUUCUACAGUCCGACGAUCACUUCAAAAAAGCUUAAUUAAGUACAACCAACCACCUUUCCAGCCACCGAGAUUUUAAUCCGCCCAACCCGAAGCCCCGUGUGUGUGCUUUCUUAAUGUGUGUGCCAAUGGUGGAUCUUUCAACAGAGGAUUGAGCAUCA"}, "B9": {"name": "chr12:48145849:48145950:+|3pUTR|ENSG00000152556|msi1|FALSE|unique (ssRNA)", "RNA": "GGGAGUUCUACAGUCCGACGAUCCAUGACCAGUUCUGGCCAGGAGCUGGAGGAGCAGGCAGUGGGUGGGAGCUCCUUUUAGGUAGAAUUUAACAUGACUUCUGCCCCAGCUUUAUCUGUCACACAAGGCUGGGCACCUCUAGUCAACAGAGGAUUGAGCAUCA"}, "B10": {"name": "chr10:74118697:74119064:+|3pUTR|ENSG00000035403|msi1|FALSE|unique (ssRNA)", "RNA": "GGGAGUUCUACAGUCCGACGAUCGAAGAAAUCACAGAAUCAUAUGAUUCUGCUUUUACCAUGCCCCUGAGCAAUGUCUGUGCUAGGGAAACUUCCCGUCCCAUAUCCUGCCUCAGCCCGCCAAGGUAGCCAUCCCAUGAACACCAACAGAGGAUUGAGCAUCA"}, "B11": {"name": "chr3:127036428:127036535:+|3pUTR|ENSG00000114554|msi1|FALSE|unique (ssRNA)", "RNA": "GGGAGUUCUACAGUCCGACGAUCGCGUGUGGCUGGGGCGUGGCCACCACAGAGCACAUGGCUGUGUCUAGGCGCAAGCACUUUAGCAGUAUCUGUUUACAUGCGCAAGGAUCAAGCCGACUACCUGUGCUGUCUACUGGGACACAACAGAGGAUUGAGCAUCA"}, "B12": {"name": "chr1:26899991:26900442:-|CDS|ENSG00000198746|control|control|control (ssRNA)", "RNA": "GGGAGUUCUACAGUCCGACGAUCUACCUGGUAGUGAGCGGUAUCCCCUCCGUGUUGCGCUCGGCCCAUUUACGGAGCUAUUUUAGCCAGUUCCGAGAAGAGCGCGGCGGUGGCUUCCUCUGUUUCCACUACCGGCAUCGGCCUCAACAGAGGAUUGAGCAUCA"}, "B13": {"name": "chr5:115137525:115137627:-|CDS|ENSG00000152503|unk|FALSE|unique (ssRNA)", "RNA": "GGGAGUUCUACAGUCCGACGAUCUUUAGCAGAAGAGGCUAUUCUUUGUUUUAUCUUAGUGUAAUGGAGAUACUGUUUUUUCUUAGUGUAAUGGAGAGAGGGCUAAAGAAGAAGCAAUUACACAUUUUGAAAAGCUCUUUGAAGCAACAGAGGAUUGAGCAUCA"}, "B14": {"name": "chr2:86144366:86144519:-|CDS|ENSG00000132305|unk|FALSE|unique (ssRNA)", "RNA": "GGGAGUUCUACAGUCCGACGAUCAAACACAUUUAAAUUACUGUCAUAUGCUUCCUAUUGCAUUGAGCAUGGUGAUCUGGAGCUAGCAGCAAAGUUUGUCAAUCAGCUGAAGGGGGAAUCCAGACGAGUGGCACAGGACUGGCUCAACAGAGGAUUGAGCAUCA"}, "B15": {"name": "chr6:138432586:138432687:-|CDS|ENSG00000135540|unk|FALSE|unique (ssRNA)", "RNA": "GGGAGUUCUACAGUCCGACGAUCGGAGCCCUGGGAAUACAAAUCCUCAGGUAAUGGAAGGGCAUCCCCCCUGAAGCCGCAUUUAGCAACUCCUGGCUAUUCCACUCCCACAAGUAACAUGAGCAGCUGCAGUUUGGACCAAACCAACAGAGGAUUGAGCAUCA"}, "B16": {"name": "chr8:97851660:97851768:+|3pUTR|ENSG00000104341|msi1_unk|total|mutant (ssRNA)", "RNA": "GGGAGUUCUACAGUCCGACGAUCAUUAACUGCCGAAUUCUUCCUGUACGAUUGGGGAUAUAAUGGGCUUCACUAACCUUCCCCCGGCAUUGAAACUUCCCCCAAAUCUGAUGGACCCCGAAGUCUGCUUUUGUACCUGCUGGGCAACAGAGGAUUGAGCAUCA"}, "B17": {"name": "chr19:7961171:7961272:-|3pUTR|ENSG00000066044|msi1|FALSE|unique (ssRNA)", "RNA": "GGGAGUUCUACAGUCCGACGAUCGGCGGGAUUCCCGCUUCUGAAACUCCCCCUGGAGUCUCACUCCCACACAUGCCCAUAGCUAGCAUUCAACAGAGAACUCUGUCUUAAGCUUCAACUGUGAAAAUGAUGACGGGCUUGUAGCAACAGAGGAUUGAGCAUCA"}, "B18": {"name": "chr17:5346795:5346911:+|CDS|ENSG00000029725|unk|total|mutant (ssRNA)", "RNA": "GGGAGUUCUACAGUCCGACGAUCAGAACUGAAUCAUUAUCUGGAAGCUGAGAAAUCUUGCCGGACUGAUCCCGAGAUGUAUGCCGCUGUUUUGAAUACUCAGAAAUCUGUUCUACAGGAAGAUGCUGAGAAACUGCGGAAAGACAACAGAGGAUUGAGCAUCA"}, "B19": {"name": "chr11:62752106:62752207:-|CDS|ENSG00000185670|msi1|total|mutant (ssRNA)", "RNA": "GGGAGUUCUACAGUCCGACGAUCGGCUCACAAUGAGGACCUGGCCAAACGCAGCAAACCAGAUCCAGAAGUGGGACCCCUUCCCGGGGUGCAGCCUCUCCCUGGCUCCCCAACAGCAGACAGACAGAGCAGCAGUGGUGGAGGCAACAGAGGAUUGAGCAUCA"}, "B20": {"name": "ENSG00000154556:stop:overlap|stop_codon|ENSG00000154556|stop_codon|NA|stop_codon (ssRNA)", "RNA": "GGGAGUUCUACAGUCCGACGAUCCUUCUUCCCCAUCAAGAGCAAAAGUUACUCAGGGCUCAACGGCAACCCCUCCAGUGAGUUAGAUUACUGUAGCACUUACAGACAGCACUUGGAUGUCCCUCGGGACUCACCAAGAGCCAUCAACAGAGGAUUGAGCAUCA"}, "B21": {"name": "chr14:103559255:103559356:-|3pUTR|ENSG00000166170|msi1|FALSE|unique (ssRNA)", "RNA": "GGGAGUUCUACAGUCCGACGAUCGCUUAACGGGGUGGGGUUUUUUUGUUUGUUCAGACAGUCUGUUCUUUUGUAAACAUUUUUAGUUGGAAAAACAGCAUCUGCAUUUUCCCCAUCCUCUACGUUUUAGAGAGGAAUCUUGUUCAACAGAGGAUUGAGCAUCA"}, "B22": {"name": "ENSG00000164751:stop:overlap|stop_codon|ENSG00000164751|stop_codon|NA|stop_codon (ssRNA)", "RNA": "GGGAGUUCUACAGUCCGACGAUCAAGUACACAGUCUGCAGCCACUGAAAUCAGGAAUCGAGAUGUCAGAAGUAAAUGCUCUUUAGAAACUAAAAUUGCUUCCUUUGAGGAAAAAAAUGCACCGUGUUUAAAUUCUUAAUAUUACAACAGAGGAUUGAGCAUCA"}},
  "note": "The other results are listed elsewhere or left out.",
  "data": [
    {"molecular_target": "MSI1 full-length (mouse, UniProt Q61474 1-362)", "sequence (Q61474 whole entry)": "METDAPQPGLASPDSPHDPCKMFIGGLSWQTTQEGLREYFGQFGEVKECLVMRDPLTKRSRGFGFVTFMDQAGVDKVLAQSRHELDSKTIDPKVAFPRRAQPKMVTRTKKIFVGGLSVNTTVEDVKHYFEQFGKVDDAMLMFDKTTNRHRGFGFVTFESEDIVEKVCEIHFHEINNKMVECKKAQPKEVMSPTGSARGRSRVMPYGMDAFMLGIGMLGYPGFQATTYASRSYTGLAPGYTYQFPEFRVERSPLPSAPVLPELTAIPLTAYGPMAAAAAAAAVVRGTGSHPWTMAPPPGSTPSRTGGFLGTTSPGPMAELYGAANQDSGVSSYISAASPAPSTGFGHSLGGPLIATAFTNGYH", "test": "nsRBNS (natural sequence RNA bind-n-seq); RBNS binding buffer (assumed for nsRBNS): 25 mM Tris pH 7.5, 150 mM KCl, 3 mM MgCl2, 0.01% Triton X-100, 500 ug/ml BSA, 20 U/ml SUPERase-In, 4 C; UNK is unkempt and MSI1 is Musashi-1; names of the RNAs are library labels; protein concentration not given here; high values mean tight binding", "units": {"binding signal": "enrichment R"}, "values": [
      {"binder": "B1", "binding signal": 0.323},
      {"binder": "B2", "binding signal": 0.487},
      {"binder": "B3", "binding signal": 0.383},
      {"binder": "B4", "binding signal": 0.497},
      {"binder": "B5", "binding signal": 0.186},
      {"binder": "B6", "binding signal": 0.747},
      {"binder": "B7", "binding signal": 0.678},
      {"binder": "B8", "binding signal": 0.567},
      {"binder": "B9", "binding signal": 2.3},
      {"binder": "B10", "binding signal": 0.502},
      {"binder": "B11", "binding signal": 0.628},
      {"binder": "B12", "binding signal": 0.419},
      {"binder": "B13", "binding signal": 2.18},
      {"binder": "B14", "binding signal": 0.43},
      {"binder": "B15", "binding signal": 0.624},
      {"binder": "B16", "binding signal": 0.464},
      {"binder": "B17", "binding signal": 0.313},
      {"binder": "B18", "binding signal": 0.416},
      {"binder": "B19", "binding signal": 0.516},
      {"binder": "B20", "binding signal": 0.595},
      {"binder": "B21", "binding signal": 1},
      {"binder": "B22", "binding signal": 0.457}
    ]}
  ]
}
